The source gives no read counts; variants with many changes may rest on few reads.

The labels stand for the following.
B1: LINE1-mini (parent)
chain: GGCAGAGCUCAACACAGCGUGGCAAAGUGGCUGUGGCUAGACUGCC

In the data set the parent is B1. The data set can be described thus: self-cleavage, relative activity (ratio to wild type); higher = more cleavage; in vitro, sequencing; the parent is a self-cleaving ribozyme.
For C8U C18G U20G A39G, the self-cleavage was 0.04.

For the variant C8U U38A G40U C45U, the self-cleavage stood at 0.23.

As for U9A G21C A26G G29U G36C, the self-cleavage amounted to 0.01.

Turning to U9A G27U U28A, the self-cleavage amounted to 0.07.

As for C8U G36C G44U, the self-cleavage worked out at 0.06.

Take U9C A16C G21C G22A A41G: the self-cleavage was determined as 0.01.

On to C8U G21C U34G, for which the self-cleavage was 0.13.

In the case of U9A G21C A39U, the self-cleavage came out at 0.03.

On to U9C A14C G44A, for which the self-cleavage is 0.07.

C8U C13G U32C: the self-cleavage was 0.06.

In the case of U9A G21U C45U, the self-cleavage was 0.03.

Take U9A C18A A24C U28C G44C: the self-cleavage came out at 0.12.

With C8U C15U C18G G19C G30U, the self-cleavage stood at 0.25.

For the variant C8U G30U U38C, the self-cleavage was 0.55.

For the variant U9A U20C G29A, the self-cleavage was found to be 0.07.

For the variant U9C A12G A39U G44A, the self-cleavage was 0.01.

Consider U9A G19A G30U C45G, for which the self-cleavage was 0.17.

In the case of U9A A14G G44U, the self-cleavage worked out at 0.05.

On to C8U U9C A16C U20A G36A, for which the self-cleavage worked out at 0.04.

As for C8U G27U C37A, the self-cleavage came out at 0.

As for C8U G40U A41G, the self-cleavage was found to be 0.47.

As for U9C C10G C31A, the self-cleavage stood at 0.09.

On to C8U G33C G35U, for which the self-cleavage turned out to be 0.1.

On to U9C A25C G40C, for which the self-cleavage is 0.

In the case of C8U C18A A25C C31G, the self-cleavage is 0.05.

C8U G19A U20C A25U G33U U38A: the self-cleavage worked out at 0.02.

Take U9A G22A G35U A41U U43C: the self-cleavage was found to be 0.03.

Consider U9C A12G G36C G44A, for which the self-cleavage stood at 0.02.

For the variant U9A U34C U38A, the self-cleavage was found to be 0.02.

On to C8U G19U C45U, for which the self-cleavage amounted to 0.23.

Turning to C8U C18G G35C, the self-cleavage stood at 0.1.

On to C8U G17C C31G A41U, for which the self-cleavage was found to be 0.08.

Take C8U U20C A25U U34G: the self-cleavage is 0.24.

Turning to U9A C13G U32G C37U C45G, the self-cleavage is 0.12.

For the variant U9A C15U G19C A24U, the self-cleavage was 0.06.

With U9C A12G G22U G29U G44C, the self-cleavage was 0.01.

Take U9A C10A C13A G36A U43A: the self-cleavage was determined as 0.03.

U9A A11C A25U: the self-cleavage turned out to be 0.01.

U9A C10U C13G G30C G35A C37U: the self-cleavage turned out to be 0.02.

Consider C8U C13G C15G A39C, for which the self-cleavage amounted to 0.07.

Regarding U9A A24U G35U C37G, the self-cleavage is 0.14.

U9C C13U U32A: the self-cleavage was found to be 0.06.

On to U9A A12G C18U, for which the self-cleavage stood at 0.01.

Turning to C8U G29U G40A, the self-cleavage came to 0.36.

In the case of U9A U20A G29A U34A G44C, the self-cleavage was found to be 0.02.

C8U G22U U34G U38C C42G: the self-cleavage stood at 0.85.

For C8U G19U G27A G30U, the self-cleavage stood at 0.33.

On to U9C G17C G40A C45G, for which the self-cleavage came out at 0.01.

Turning to C8U U28C C37G, the self-cleavage stood at 0.04.

U9C A14G G22C: the self-cleavage was determined as 0.03.

For U9A A39U A41C, the self-cleavage was 0.03.

For C8U G17C A39U A41U, the self-cleavage was found to be 0.04.

In the case of U9C A16C G22A A24C, the self-cleavage was determined as 0.

Regarding C8U C13G G19A A41C, the self-cleavage is 0.01.

For U9A A11U C13A G29C G33U, the self-cleavage was 0.01.

With U9A C15A G21U A39U C45A, the self-cleavage was determined as 0.04.

Consider C8U U9A A11U, for which the self-cleavage worked out at 0.05.

Take U9A C31U C37G C42G: the self-cleavage came out at 0.01.

C8U U28G A39C G40U: the self-cleavage stood at 0.12.

For the variant U9C C13U G33C, the self-cleavage stood at 0.

Take U9A A24G G44A: the self-cleavage amounted to 0.04.

Take U9A U20A G33U: the self-cleavage was determined as 0.06.

C8U G21C C42A: the self-cleavage was found to be 0.18.

As for U9A G17U C18G, the self-cleavage stood at 0.02.

In the case of C8U U32C G35C, the self-cleavage came out at 0.05.

As to C8U C13A G29U U38A C46U, the self-cleavage amounted to 0.14.

In the case of U9C C10G A39G G40U, the self-cleavage is 0.01.

As to C8U C15G A16U G21C U28A G35A G44U, the self-cleavage came to 0.02.

In the case of U9C A14C A41U C45A, the self-cleavage came out at 0.01.

Consider U9A G19U U20A C46U, for which the self-cleavage was 0.22.

Take U9A C31G C37U: the self-cleavage was 0.02.

For the variant C8U G22A A24U A41U, the self-cleavage was determined as 0.24.

In the case of U9A A12U A25G U32A, the self-cleavage is 0.04.

Consider C8U U20G C42U C46G, for which the self-cleavage amounted to 0.11.

For the variant U9C A14U C23G A26C C46G, the self-cleavage turned out to be 0.02.

Consider U9A G17U C18A G21A G30A C31U, for which the self-cleavage was found to be 0.01.

Turning to C8U G19A G22U G27U G35C G40A, the self-cleavage was found to be 0.11.

On to U9A G17U G21U, for which the self-cleavage amounted to 0.15.

Turning to U9A A24C A25U U32A U34C C42U, the self-cleavage was 0.09.

Turning to C8U C15G G27C G44U, the self-cleavage came out at 0.04.

C8U C18G G36A U38C: the self-cleavage is 0.06.

Turning to C8U U34G G40C, the self-cleavage stood at 0.08.

U9A C10G G27C: the self-cleavage was determined as 0.04.

As for C8U C13G U38G, the self-cleavage was 0.01.

As to U9C A11G C13G C18A G29A C37U, the self-cleavage is 0.01.

On to C8U C10U A12C A26G, for which the self-cleavage stood at 0.03.

With U9C C10G C37U, the self-cleavage amounted to 0.01.

For the variant U9A G19A C46U, the self-cleavage came out at 0.08.

As for U9A C10A A12U G22C G35C, the self-cleavage was found to be 0.03.

In the case of U9C C13U G27A G30U, the self-cleavage was 0.02.

C8U C18A G29U: the self-cleavage was found to be 0.27.

For U9A G29U C37A A41C, the self-cleavage came to 0.04.

Turning to U9A U38G C46A, the self-cleavage was 0.15.

Turning to U9C A16U G33C, the self-cleavage came to 0.

Turning to U9A G19U A25C A26C, the self-cleavage was 0.03.

As to C8U C10U G22C G30U U43C, the self-cleavage was 0.04.

For U9A A12C A16G G17A, the self-cleavage amounted to 0.02.

Turning to U9A U34C C42A, the self-cleavage came out at 0.13.

On to U9C A24U C37U, for which the self-cleavage came to 0.02.

In the case of C8U G21A C45U, the self-cleavage was 0.71.

On to C8U G21U G29U G44C, for which the self-cleavage is 0.05.

For the variant U9A A16U G29U G30A G33A, the self-cleavage turned out to be 0.18.

On to U9A C23U G36A G44A C45U, for which the self-cleavage came to 0.12.

Take U9A G21U A39U: the self-cleavage amounted to 0.02.

Regarding U9C A26U C37A U38C, the self-cleavage worked out at 0.02.

As to U9A C15U A16G C18A G29A U32A, the self-cleavage came out at 0.04.

For U9C A25G U34C, the self-cleavage was 0.03.

For C8U U28A U32A, the self-cleavage was 0.49.

U9C G19U G35A: the self-cleavage turned out to be 0.03.

With C8U G27U U38A G44A, the self-cleavage was 0.1.

Take C8U C15A A25C: the self-cleavage amounted to 0.25.

As to U9C A14G U20G G44A C45G, the self-cleavage is 0.

On to U9A A12C C23G, for which the self-cleavage was found to be 0.01.

Consider U9A C23G C31G C37G U43A, for which the self-cleavage was determined as 0.09.

On to C8U U9A A12G U20G, for which the self-cleavage came to 0.05.

For the variant U9C A11U U32A, the self-cleavage amounted to 0.02.

In the case of C8U C18G C42A, the self-cleavage came to 0.17.

As to U9A C18A C45A, the self-cleavage came out at 0.07.

As for U9A G30U G36U, the self-cleavage was 0.06.

Take U9A A25U G29C C46U: the self-cleavage was found to be 0.13.

With U9C C18U G30U, the self-cleavage stood at 0.

On to U9A C10G G17U U20C G27U A41C, for which the self-cleavage worked out at 0.01.

For the variant C8U G19U G33A, the self-cleavage turned out to be 0.04.

With C8U G22C G29C, the self-cleavage is 0.1.

Turning to C8U C10G G30A, the self-cleavage worked out at 0.03.

In the case of U9A G19C G27U, the self-cleavage was 0.05.

For U9A U32G U38C, the self-cleavage is 0.13.

With U9C G19C A25U, the self-cleavage came to 0.02.

As for U9A A14U G33C C37A U38G G40U, the self-cleavage stood at 0.1.

In the case of U9C A39G A41C, the self-cleavage turned out to be 0.03.

For U9A G22C G35U U38A, the self-cleavage amounted to 0.05.

Regarding C8U U9C C10U G22A U28A, the self-cleavage turned out to be 0.02.

Take C8U G36C C42U: the self-cleavage worked out at 0.11.

With C8U G29U G35U, the self-cleavage came out at 0.09.

U9A G22U A41C: the self-cleavage was 0.13.

Take U9C C10G G36U C45G: the self-cleavage was found to be 0.04.

As to U9C G19C U28A, the self-cleavage is 0.03.

On to C8U C23A C37A, for which the self-cleavage came to 0.1.

As for C8U G29A C46A, the self-cleavage is 0.12.

U9C A26U G33U: the self-cleavage was found to be 0.04.

For C8U G17U C18U G40A, the self-cleavage was 0.24.

For the variant U9C A14G A24C C31A G33C, the self-cleavage was found to be 0.02.

With U9C C15G G21A G44U, the self-cleavage is 0.01.

Take C8U G30U U32C: the self-cleavage is 0.18.

As for C8U C10U G29A, the self-cleavage came to 0.04.

Consider U9A G27U C45A, for which the self-cleavage was found to be 0.06.

For the variant C8U C15A A16U C37A G40U G44U, the self-cleavage amounted to 0.03.

For the variant C8U C18U A26G, the self-cleavage is 0.15.

With C8U C10U U28G U34G, the self-cleavage worked out at 0.07.

Take C8U C13U A39C G40C: the self-cleavage stood at 0.2.

Consider C8U U38C C42A, for which the self-cleavage worked out at 0.08.

Consider C8U U20C C37U, for which the self-cleavage came to 0.13.

As for U9A U20G C23A G35U A39U, the self-cleavage came out at 0.11.

Consider U9A C23G A24U G33A, for which the self-cleavage came out at 0.06.

On to U9A C10U A12G G40U C42U, for which the self-cleavage came out at 0.05.

With C8U C23A U34C, the self-cleavage came out at 0.46.

For U9A U20G G27C, the self-cleavage stood at 0.05.

On to U9A A11U A16U, for which the self-cleavage came out at 0.03.

As for C8U G29C G30U C45U, the self-cleavage is 0.34.

For the variant U9C A12C U20C U28A G29C, the self-cleavage is 0.

Turning to C8U G19U U20A G35A, the self-cleavage worked out at 0.07.

C8U G29U U32G C37G: the self-cleavage stood at 0.03.

For the variant C8U C37A C45A, the self-cleavage was found to be 0.2.

As for U9C C13G A26C U34A, the self-cleavage worked out at 0.01.

On to U9A C15U G27C, for which the self-cleavage amounted to 0.23.

In the case of C8U C13U G17A G19A G21U C46A, the self-cleavage turned out to be 0.1.

Consider U9A A16C G30U, for which the self-cleavage amounted to 0.02.
